# Test results reported in a collection of fitness landscapes (doi:10.1016/j.celrep.2020.107928).
# The full ranking holds about 81,000 sequences; the median of “one-hybrid fitness for binding NBS DNA” is about -0.1, and the highest 2% start at about 0.36. This is one part of the list.
# B1: Caulobacter ParB omega fusion; a variant is named by its letters at X, in order, B8GW30 (parent)
# chain: MESVVVGEPGMSEGRRGLGRGLSALLGEVDAAPAQAPGEQLGGSREAPIEILQRNPDQPRRTFREEDLEDLSNSIREKGVLQPILVRPSPDTAGEYQIVAGERAWRAAQRAGLKTVPIMVRELDDLAVLEIGIIENVQRADLNVLEEALSYKVLMEKFERTQENIAQTIGKSXSHVANXMRLLXLPDEVQSYLVSGELTAXHARAIAAAADPVALAKQIIEGGLSVRETEALARKAPNLSAGKSKGGRPPRVKDTDTQALESDLSSVLGLDVSIDHRGSTGTLTITYATLEQLDDLCNRLTRGI
# Variants of: B1
# Experiment: one-hybrid fitness for binding NBS DNA (the Noc-binding site; scaled: cognate 1, non-cognate 0); higher = stronger binding
# Conditions: with NBS DNA site
# Summary of the method: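 Fitness is the rescaled log change in variant-to-wild-type read ratio, measured by Illumina sequencing of plasmids before and after bacterial one-hybrid selection. The scale puts cognate at 1 and non-cognate at 0. Selection of Caulobacter ParB libraries, four specificity codons randomised, took place in E. coli USO with a HIS3 reporter, site 19 bp from the promoter, over 48 hours at 37°C on M9-minus-histidine with 0.1 mM IPTG and 5 mM 3-AT.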
row,Variant,one-hybrid fitness for binding NBS DNA
1,RDNT,≤ 0.2
2,VEHV,≤ 0.2
3,FMKR,0.226
4,HDQG,≤ 0.2
5,KKRV,≤ 0.2
6,HAGW,≤ 0.2
7,CGWR,≤ 0.2
8,KRIA,≤ 0.2
9,NVHW,≤ 0.2
10,RILV,≤ 0.2
11,STYP,≤ 0.2
12,KVMS,≤ 0.2
13,TDKS,≤ 0.2
14,PASN,≤ 0.2
15,SEFS,≤ 0.2
16,QILH,≤ 0.2
17,FPAT,≤ 0.2
18,PFWN,≤ 0.2
19,QQRN,0.466
20,YTLT,≤ 0.2
21,HASE,≤ 0.2
22,LPFI,≤ 0.2
23,DWNA,≤ 0.2
24,PYGR,≤ 0.2
25,APLQ,≤ 0.2
26,NALN,≤ 0.2

row,Variant,one-hybrid fitness for binding NBS DNA
1,DLCC,≤ 0.2
2,TLAI,≤ 0.2
3,RPLC,≤ 0.2
4,YNRC,≤ 0.2
5,RNMI,≤ 0.2
6,RNGL,≤ 0.2
7,VRAE,≤ 0.2
8,HPED,≤ 0.2
9,KGWT,≤ 0.2
10,RIVP,≤ 0.2
11,ELDV,≤ 0.2
12,QGDI,≤ 0.2
13,RPSP,≤ 0.2
14,DVVT,≤ 0.2
15,IPVI,≤ 0.2
16,FAPT,≤ 0.2
17,PGPS,≤ 0.2
18,PPVL,≤ 0.2
19,LHAC,≤ 0.2
20,TRCH,≤ 0.2
21,SICT,≤ 0.2
22,RVMG,≤ 0.2
23,NVYF,≤ 0.2
24,FVEG,≤ 0.2
25,APWS,≤ 0.2
26,CPRE,≤ 0.2

row,Variant,one-hybrid fitness for binding NBS DNA
1,HCRY,≤ 0.2
2,SQDC,≤ 0.2
3,DLLA,≤ 0.2
4,QTCF,≤ 0.2
5,MAEN,≤ 0.2
6,KISE,≤ 0.2
7,SGMW,≤ 0.2
8,IRYW,≤ 0.2
9,NLSK,≤ 0.2
10,RDDE,≤ 0.2
11,LDEG,≤ 0.2
12,ADLA,≤ 0.2
13,DATC,≤ 0.2
14,LQRA,≤ 0.2
15,RKKS,0.653
16,PNFS,≤ 0.2
17,TMHS,≤ 0.2
18,DGPI,≤ 0.2
19,APIH,≤ 0.2
20,NKVG,≤ 0.2
21,SELY,≤ 0.2
22,GERD,≤ 0.2
23,MRDT,≤ 0.2
24,KQSG,≤ 0.2
25,FIQR,≤ 0.2
26,RIDG,≤ 0.2

row,Variant,one-hybrid fitness for binding NBS DNA
1,CKIG,≤ 0.2
2,SPTS,≤ 0.2
3,RWSE,≤ 0.2
4,YAVI,≤ 0.2
5,ENKN,≤ 0.2
6,MRPR,≤ 0.2
7,PHVV,≤ 0.2
8,NLGR,≤ 0.2
9,QTIT,0.522
10,DPKS,≤ 0.2
11,RCYC,≤ 0.2
12,RKDV,≤ 0.2
13,MTVA,≤ 0.2
14,LSFS,≤ 0.2
15,NHAS,≤ 0.2
16,FFAG,≤ 0.2
17,YPLK,≤ 0.2
18,RRPI,≤ 0.2
19,EVDT,≤ 0.2
20,RDET,≤ 0.2
21,NMRA,≤ 0.2
22,PGTF,≤ 0.2
23,MCGS,≤ 0.2
24,ERGW,≤ 0.2
25,HQTV,≤ 0.2
26,AAYG,≤ 0.2

row,Variant,one-hybrid fitness for binding NBS DNA
1,ELWG,≤ 0.2
2,RTLQ,≤ 0.2
3,ALLV,≤ 0.2
4,EQAS,≤ 0.2
5,CNWT,≤ 0.2
6,PCKT,≤ 0.2
7,QSRY,0.505
8,NPGR,≤ 0.2
9,SFLA,≤ 0.2
10,LHFR,≤ 0.2
11,PITF,≤ 0.2
12,RKKG,0.227
13,MLET,≤ 0.2
14,RVYI,≤ 0.2
15,CFYV,≤ 0.2
16,SDIC,≤ 0.2
17,ESTW,≤ 0.2
18,PQHK,≤ 0.2
19,WVRA,≤ 0.2
20,RPED,≤ 0.2
21,GVVA,≤ 0.2
22,SMTY,≤ 0.2
23,QVQH,≤ 0.2
24,QQTE,≤ 0.2
25,LYTY,≤ 0.2
26,ECRC,≤ 0.2

row,Variant,one-hybrid fitness for binding NBS DNA
1,QEVE,≤ 0.2
2,GDVT,≤ 0.2
3,QLCW,≤ 0.2
4,PCMC,≤ 0.2
5,RHGR,0.403
6,PFAV,≤ 0.2
7,DAMR,≤ 0.2
8,RTTW,≤ 0.2
9,QNDC,≤ 0.2
10,RQGS,0.408
11,PQSS,≤ 0.2
12,TLAK,≤ 0.2
13,TQFR,≤ 0.2
14,ADVF,≤ 0.2
15,VTHF,≤ 0.2
16,SLLY,≤ 0.2
17,TMRI,≤ 0.2
18,KYSV,≤ 0.2
19,NIWT,≤ 0.2
20,LHWL,≤ 0.2
21,FWFG,≤ 0.2
22,KNIL,≤ 0.2
23,ERFA,≤ 0.2
